{"source": "the supplement of paper PMC8728848", "binders": {"B1": {"name": "AidA (Burkholderia cenocepacia) (protein)", "chain": "MSRVTDVLVSFDTETILKKYPNPSKNPAAPTLIDWRYVYMVTNQDNVISGQAGGELDLKAQVGDLIRWRETSLSLGFENQVVFYKFIGNVGNDLISTPTPRVAEASIPVPNTSKPEVPTCQKVANYYWSSECLKVGRVTYHFQFQIIDRNCQSQGCFSWDPFISIHN"}}, "test_in_all_cases": "glycan array binding signal (z-score within array); higher = stronger binding", "conditions_in_all_cases": "glycan notation: IUPAC condensed, linker removed", "key": {"[1]": {"molecular_target": "Neu5Ac(a2-3)Gal(b1-4)GlcNAc(b1-6)GalNAc", "outline": "(§1)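 From the Consortium for Functional Glycomics database, 3228 arrays were curated, keeping only those whose protein sequence was available. Binding is given as a within-array Z-score averaged across arrays sharing a protein sequence and across linkers. Negative Z-scores can be read as non-binding.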"}, "[2]": {"molecular_target": "Neu5Ac(a2-3)Gal(b1-4)GlcNAc(b1-6)[Gal(b1-3)]GalNAc", "outline": "as §1"}, "[3]": {"molecular_target": "Neu5Ac(a2-3)Gal(b1-4)GlcNAc(b1-6)[Neu5Ac(a2-3)Gal(b1-3)]GalNAc", "outline": "as §1"}, "[4]": {"molecular_target": "Neu5Ac(a2-3)Gal(b1-4)GlcNAc6S", "outline": "as §1"}, "[5]": {"molecular_target": "Neu5Ac(a2-3)Gal(b1-4)[Fuc(a1-3)]GlcNAc", "outline": "as §1"}, "[6]": {"molecular_target": "Neu5Ac(a2-3)Gal(b1-4)[Fuc(a1-3)]GlcNAc(b1-2)Man", "outline": "as §1"}, "[7]": {"molecular_target": "Neu5Ac(a2-3)Gal(b1-4)[Fuc(a1-3)]GlcNAc(b1-3)Gal", "outline": "as §1"}, "[8]": {"molecular_target": "Neu5Ac(a2-3)Gal(b1-4)[Fuc(a1-3)]GlcNAc(b1-3)Gal(b1-4)GlcNAc", "outline": "as §1"}, "[9]": {"molecular_target": "Neu5Ac(a2-3)Gal(b1-4)[Fuc(a1-3)]GlcNAc(b1-3)Gal(b1-4)[Fuc(a1-3)]GlcNAc(b1-3)Gal(b1-4)[Fuc(a1-3)]GlcNAc", "outline": "as §1"}, "[10]": {"molecular_target": "Neu5Ac(a2-3)Gal(b1-4)[Fuc(a1-3)]GlcNAc(b1-3)GalNAc", "outline": "as §1"}, "[11]": {"molecular_target": "Neu5Ac(a2-3)Gal(b1-4)[Fuc(a1-3)]GlcNAc(b1-6)[Gal(b1-3)]GalNAc", "outline": "as §1"}, "[12]": {"molecular_target": "Neu5Ac(a2-3)Gal(b1-4)[Fuc(a1-3)]GlcNAc(b1-6)[Neu5Ac(a2-3)Gal(b1-3)]GalNAc", "outline": "as §1"}, "[13]": {"molecular_target": "Neu5Ac(a2-3)Gal(b1-4)[Fuc(a1-3)]GlcNAc6S", "outline": "as §1"}, "[14]": {"molecular_target": "Neu5Ac(a2-3)Gal6S(b1-4)GlcNAc", "outline": "as §1"}, "[15]": {"molecular_target": "Neu5Ac(a2-3)Gal6S(b1-4)[Fuc(a1-3)]GlcNAc", "outline": "as §1"}, "Neu5Ac(a2-3)GalNAc": {"molecular_target": "Neu5Ac(a2-3)GalNAc", "outline": "as §1"}, "[16]": {"molecular_target": "Neu5Ac(a2-3)GalNAc(b1-4)GlcNAc", "outline": "as §1"}, "[17]": {"molecular_target": "Neu5Ac(a2-3)[GalNAc(b1-4)]Gal(b1-4)Glc", "outline": "as §1"}, "[18]": {"molecular_target": "Neu5Ac(a2-3)[GalNAc(b1-4)]Gal(b1-4)GlcNAc", "outline": "as §1"}, "[19]": {"molecular_target": "Neu5Ac(a2-3)[GalNAc(b1-4)]Gal(b1-4)GlcNAc(b1-3)GalNAc", "outline": "as §1"}, "[20]": {"molecular_target": "Neu5Ac(a2-3)[Neu5Ac(a2-6)]GalNAc", "outline": "as §1"}, "Neu5Ac(a2-6)Gal": {"molecular_target": "Neu5Ac(a2-6)Gal", "outline": "as §1"}}, "note": "This is one part of the list.", "data": [{"binder": "B1", "values": [{"measurement": "glycan array binding signal (z-score)", "setting": "[1]", "value": -0.721}, {"measurement": "glycan array binding signal (z-score)", "setting": "[2]", "value": -0.586}, {"measurement": "glycan array binding signal (z-score)", "setting": "[3]", "value": -0.108}, {"measurement": "glycan array binding signal (z-score)", "setting": "[4]", "value": -0.261}, {"measurement": "glycan array binding signal (z-score)", "setting": "[5]", "value": 0.589}, {"measurement": "glycan array binding signal (z-score)", "setting": "[6]", "value": -0.076}, {"measurement": "glycan array binding signal (z-score)", "setting": "[7]", "value": -0.027}, {"measurement": "glycan array binding signal (z-score)", "setting": "[8]", "value": 0.479}, {"measurement": "glycan array binding signal (z-score)", "setting": "[9]", "value": 0.2}, {"measurement": "glycan array binding signal (z-score)", "setting": "[10]", "value": 1.86}, {"measurement": "glycan array binding signal (z-score)", "setting": "[11]", "value": -0.213}, {"measurement": "glycan array binding signal (z-score)", "setting": "[12]", "value": 0.593}, {"measurement": "glycan array binding signal (z-score)", "setting": "[13]", "value": -0.124}, {"measurement": "glycan array binding signal (z-score)", "setting": "[14]", "value": -0.261}, {"measurement": "glycan array binding signal (z-score)", "setting": "[15]", "value": -0.056}, {"measurement": "glycan array binding signal (z-score)", "setting": "Neu5Ac(a2-3)GalNAc", "value": 0.603}, {"measurement": "glycan array binding signal (z-score)", "setting": "[16]", "value": -0.134}, {"measurement": "glycan array binding signal (z-score)", "setting": "[17]", "value": 0.03}, {"measurement": "glycan array binding signal (z-score)", "setting": "[18]", "value": -0.388}, {"measurement": "glycan array binding signal (z-score)", "setting": "[19]", "value": -0.87}, {"measurement": "glycan array binding signal (z-score)", "setting": "[20]", "value": -0.269}, {"measurement": "glycan array binding signal (z-score)", "setting": "Neu5Ac(a2-6)Gal", "value": -0.346}]}]}
